The target in experiment [1] is AMPK β2-subunit, Cyto-Y2H fusion (rat) (UniProt Q9QZH4). Nature of the experiment: two-hybrid; Cyto-Y2H (split ubiquitin, cytosolic, transcriptional read-out); growth on SD-AHWL, 72 h at 30°C; Figure 2A.
For experiment [2], the target named is Large T Antigen of Simian Virus (amino acids 84–704), Cyto-Y2H fusion (Simian Virus) (UniProt P03070). The experiment is described as above.
For experiment [3], the target named is N-terminal domain of AMPK β2-subunit (Δβ2, amino acids 1–54), Cyto-Y2H fusion (rat) (UniProt Q9QZH4). The description is as above.
Experiment [4] concerns the target AMPK β2-subunit, Split-Trp-Y2H fusion (rat) (UniProt Q9QZH4). Nature of the experiment: two-hybrid; Split-Trp-Y2H (reconstitution of Trp1p); growth on SD-UWL, up to 9 days at 27°C; Figure 2B.
Experiment [5] concerns the target N-terminal domain of AMPK β2-subunit (Δβ2, amino acids 1–54), Split-Trp-Y2H fusion (rat) (UniProt Q9QZH4). The experiment is described as above.
The target of experiment [6] is AMPK β2-subunit, Split-Trp-Y2H fusion (rat) (UniProt Q9QZH4). As to the kind of experiment: two-hybrid; Split-Trp-Y2H with GST-Sj in the other orientation (bait instead of prey or the reverse); data not shown.
Experiment [7] concerns the target N-terminal domain of AMPK β2-subunit (Δβ2, amino acids 1–54), Split-Trp-Y2H fusion (rat) (UniProt Q9QZH4). Described as above.
Experiment [8] deals with AMPK β2-subunit, Cyto-Y2H fusion (rat) (UniProt Q9QZH4). Nature of the experiment: two-hybrid; Cyto-Y2H with GST-Sj in the other orientation (bait instead of prey or the reverse); data not shown.
In experiment [9] the target is N-terminal domain of AMPK β2-subunit (Δβ2, amino acids 1–54), Cyto-Y2H fusion (rat) (UniProt Q9QZH4). Described as above.
The target of experiment [10] is Large T Antigen of Simian Virus (amino acids 84–704), Split-Trp-Y2H fusion (Simian Virus) (UniProt P03070). As to the kind of experiment: two-hybrid; Split-Trp-Y2H (reconstitution of Trp1p); growth on SD-UWL, up to 9 days at 27°C; Figure 2B.

The chains behind the UniProt entries cited, without tags or fusion partners. Where a name states a change or a piece, a line headed by the entry shows the natural chain unless it says otherwise. Residues count along the entry.
UniProt Q9QZH4: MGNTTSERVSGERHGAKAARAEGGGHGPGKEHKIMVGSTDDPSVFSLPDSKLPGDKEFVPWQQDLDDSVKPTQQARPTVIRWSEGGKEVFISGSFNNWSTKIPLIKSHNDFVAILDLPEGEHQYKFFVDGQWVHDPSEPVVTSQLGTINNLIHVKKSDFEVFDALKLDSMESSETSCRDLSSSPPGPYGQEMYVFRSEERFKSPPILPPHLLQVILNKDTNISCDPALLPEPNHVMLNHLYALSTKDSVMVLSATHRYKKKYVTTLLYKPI
N-terminal domain of AMPK β2-subunit (Δβ2, amino acids 1–54), Split-Trp-Y2H fusion: residues 1-54 of Q9QZH4
UniProt P04906: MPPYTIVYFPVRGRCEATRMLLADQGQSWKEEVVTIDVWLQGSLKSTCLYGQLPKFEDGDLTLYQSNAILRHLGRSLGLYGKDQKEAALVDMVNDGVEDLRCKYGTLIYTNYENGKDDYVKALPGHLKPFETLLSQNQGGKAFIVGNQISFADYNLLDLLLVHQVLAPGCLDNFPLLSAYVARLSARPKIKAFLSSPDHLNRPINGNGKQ

Results are given in words; binding and its absence hold for the method and conditions named. Some results given as binding are weak or reduced against the parent protein; the word gives no strength. For some assays here: Sequences can lack the tags named with a protein.

Drawing on PMC3669356, this text covers binding for six molecules.

Take “rat GSTP1, Cyto-Y2H fusion (from UniProt P04906 1-210) (enzyme)”: the binding entry in experiment [1] is on record as “binds”; in experiment [2], “no binding”; in [3], “binds”.

For “GST-Sj, Split-Trp-Y2H fusion (from UniProt P08515 1-218) (enzyme)”, the binding entry in experiment [4], in [5], in [6] and in [7] was “binds” throughout.

For the molecule “GST-Sj, Cyto-Y2H fusion (from UniProt P08515 1-218) (enzyme)”, the binding result in [8], in experiment [9], in [1] and in experiment [3] was “binds” in each case.

In the case of “rat GSTP1, Split-Trp-Y2H fusion (from UniProt P04906 1-210) (enzyme)”, the figures for the binding result in [4], in experiment [10] and in [5] were “binds”, “no binding” and “binds”, respectively.

B1: rat GSTM1, Cyto-Y2H fusion (enzyme, UniProt P04905 1-218)
chain: MPMILGYWNVRGLTHPIRLLLEYTDSSYEEKRYAMGDAPDYDRSQWLNEKFKLGLDFPNLPYLIDGSRKITQSNAIMRYLARKHHLCGETEEERIRADIVENQVMDNRMQLIMLCYNPDFEKQKPEFLKTIPEKMKLYSEFLGKRPWFAGDKVTYVDFLAYDILDQYHIFEPKCLDAFPNLKDFLARFEGLKKISAYMKSSRYLSTPIFSKLAQWSNK
For the molecule B1, the binding entry is “binds” in [1], “no binding” in [2] and “binds” in [3].

B2: rat GSTM1, Split-Trp-Y2H fusion (enzyme, UniProt P04905 1-218)
chain: B1 chain
For the molecule B2, the binding result is “binds” in experiment [4], “no binding” in experiment [10] and “binds” in experiment [5].
